# According to the supplement of paper PMC8728848:
# The other results are listed elsewhere or left out.
# B1: Cohesin-mDC-ASGPR (Macaca mulatta) (protein)
# chain: LDITSHHHHHHDDLDAVRIKVDTVNAKPGDTVRIPVRFSGIPSKGIANCDFVYSYDPNVLEIIEIEPGDIIVDPNPDKSFDTAVYPDRKIIVFLFAEDSGTGAYAITKDGVFATIVAKVKEGAPNGLSVIKFVEVGGFANNDLVEQKTQFFDGGVNVGDTTEPATPTTPVTTPTTTDDLDAASSQNSKFQRDLVTLRTDFSNFTSNTVAEIQALTSQGSSVEEMIASLKAEVEVIKQEQQAVHSEMLLRVQRLMQDLNKLTCQVATLKNNASTERTCCPVNWVEHQDSCYWFSRSGMPWAEAEKHCQLENAHLVVINSREEQNFVQEHLSFAYTWMGLSDREGAWKWVDGTDYETGFQNWKPGQPDDWQGHGLGGGEDCAHFHPDGRWNDDVCQRPYYWVCEAGLTQASQESH
# Experiments:
# Assay in all cases: glycan array binding signal (z-score within array); higher = stronger binding
# Settings in all cases: glycan notation: IUPAC condensed, linker removed
# [1] = biological target: Neu5Ac(a2-3)Gal(b1-3)[Fuc(a1-4)]GlcNAc
# Procedure, shortened: (§1)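 Negative Z-scores can be read as non-binding. The Z-score is calculated within each array and then averaged across arrays of one protein sequence at different concentrations or buffers and across linkers. Arrays, 3228 in all, were curated from the Consortium for Functional Glycomics database and kept only where the protein sequence was available.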
# [2] = biological target: Neu5Ac(a2-3)Gal(b1-3)[Fuc(a1-4)]GlcNAc(b1-3)Gal(b1-3)[Fuc(a1-4)]GlcNAc
# Procedure, shortened: as §1
# [3] = biological target: Neu5Ac(a2-3)Gal(b1-3)[Fuc(a1-4)]GlcNAc(b1-3)Gal(b1-4)[Fuc(a1-3)]GlcNAc
# Procedure, shortened: as §1
# [4] = biological target: Neu5Ac(a2-3)Gal(b1-3)[GlcNAc(b1-6)]GalNAc
# Procedure, shortened: as §1
# [5] = biological target: Neu5Ac(a2-3)Gal(b1-3)[Neu5Ac(a2-6)]GalNAc
# Procedure, shortened: as §1
# [6] = biological target: Neu5Ac(a2-3)Gal(b1-3)[Neu5Ac(a2-6)]GlcNAc(b1-3)[Fuc(a1-3)[Gal(b1-4)]GlcNAc(b1-6)]Gal(b1-4)Glc
# Procedure, shortened: as §1
# [7] = biological target: Neu5Ac(a2-3)Gal(b1-3)]Neu5Ac(a2-3)Gal(b1-4)]GlcNAc
# Procedure, shortened: as §1
# [8] = biological target: Neu5Ac(a2-3)Gal(b1-4)Glc
# Procedure, shortened: as §1
# [9] = biological target: Neu5Ac(a2-3)Gal(b1-4)GlcNAc
# Procedure, shortened: as §1
# [10] = biological target: Neu5Ac(a2-3)Gal(b1-4)GlcNAc(b1-2)Man
# Procedure, shortened: as §1
# [11] = biological target: Neu5Ac(a2-3)Gal(b1-4)GlcNAc(b1-2)Man(a1-3)[GlcNAc(b1-4)][Neu5Ac(a2-3)Gal(b1-4)GlcNAc(b1-2)Man(a1-6)]Man(b1-4)GlcNAc(b1-4)GlcNAc
# Procedure, shortened: as §1
# [12] = biological target: Neu5Ac(a2-3)Gal(b1-4)GlcNAc(b1-2)Man(a1-3)[Neu5Ac(a2-3)Gal(b1-4)GlcNAc(b1-2)Man(a1-6)]Man(b1-4)GlcNAc(b1-4)GlcNAc
# Procedure, shortened: as §1
# [13] = biological target: Neu5Ac(a2-3)Gal(b1-4)GlcNAc(b1-2)Man(a1-3)[Neu5Ac(a2-3)Gal(b1-4)GlcNAc(b1-2)Man(a1-6)]Man(b1-4)GlcNAc(b1-4)[Fuc(a1-6)]GlcNAc
# Procedure, shortened: as §1
# [14] = biological target: Neu5Ac(a2-3)Gal(b1-4)GlcNAc(b1-2)Man(a1-3)[Neu5Ac(a2-6)Gal(b1-4)GlcNAc(b1-2)Man(a1-6)]Man(b1-4)GlcNAc(b1-4)GlcNAc
# Procedure, shortened: as §1
# [15] = biological target: Neu5Ac(a2-3)Gal(b1-4)GlcNAc(b1-2)[Neu5Ac(a2-3)Gal(b1-4)GlcNAc(b1-4)]Man(a1-3)[GlcNAc(b1-4)][Neu5Ac(a2-3)Gal(b1-4)GlcNAc(b1-2)[Neu5Ac(a2-3)Gal(b1-4)GlcNAc(b1-6)]Man(a1-6)]Man(b1-4)GlcNAc(b1-4)GlcNAc
# Procedure, shortened: as §1
# [16] = biological target: Neu5Ac(a2-3)Gal(b1-4)GlcNAc(b1-2)[Neu5Ac(a2-3)Gal(b1-4)GlcNAc(b1-4)]Man(a1-3)[GlcNAc(b1-4)][Neu5Ac(a2-3)Gal(b1-4)GlcNAc(b1-4)Man(a1-6)]Man(b1-4)GlcNAc(b1-4)GlcNAc
# Procedure, shortened: as §1
# [17] = biological target: Neu5Ac(a2-3)Gal(b1-4)GlcNAc(b1-2)[Neu5Ac(a2-3)Gal(b1-4)GlcNAc(b1-6)]Man(a1-6)[Neu5Ac(a2-3)Gal(b1-4)GlcNAc(b1-2)Man(a1-3)]Man(b1-4)GlcNAc(b1-4)GlcNAc
# Procedure, shortened: as §1
# [18] = biological target: Neu5Ac(a2-3)Gal(b1-4)GlcNAc(b1-2)[Neu5Ac(a2-3)Gal(b1-4)GlcNAc(b1-6)]Man(a1-6)[Neu5Ac(a2-3)Gal(b1-4)GlcNAc(b1-2)Man(a1-3)][GlcNAc(b1-4)]Man(b1-4)GlcNAc(b1-4)GlcNAc
# Procedure, shortened: as §1
# [19] = biological target: Neu5Ac(a2-3)Gal(b1-4)GlcNAc(b1-3)Gal
# Procedure, shortened: as §1
# [20] = biological target: Neu5Ac(a2-3)Gal(b1-4)GlcNAc(b1-3)Gal(b1-3)GlcNAc
# Procedure, shortened: as §1
# [21] = biological target: Neu5Ac(a2-3)Gal(b1-4)GlcNAc(b1-3)Gal(b1-4)GlcNAc
# Procedure, shortened: as §1
# [22] = biological target: Neu5Ac(a2-3)Gal(b1-4)GlcNAc(b1-3)Gal(b1-4)GlcNAc(b1-2)Man(a1-3)[Neu5Ac(a2-3)Gal(b1-4)GlcNAc(b1-3)Gal(b1-4)GlcNAc(b1-2)Man(a1-6)]Man(b1-4)GlcNAc(b1-4)GlcNAc
# Procedure, shortened: as §1
# [23] = biological target: Neu5Ac(a2-3)Gal(b1-4)GlcNAc(b1-3)Gal(b1-4)GlcNAc(b1-3)Gal(b1-4)GlcNAc
# Procedure, shortened: as §1
# [24] = biological target: Neu5Ac(a2-3)Gal(b1-4)GlcNAc(b1-3)Gal(b1-4)GlcNAc(b1-3)Gal(b1-4)GlcNAc(b1-2)Man(a1-3)[Neu5Ac(a2-3)Gal(b1-4)GlcNAc(b1-3)Gal(b1-4)GlcNAc(b1-3)Gal(b1-4)GlcNAc(b1-2)Man(a1-6)]GalNAc
# Procedure, shortened: as §1
# [25] = biological target: Neu5Ac(a2-3)Gal(b1-4)GlcNAc(b1-3)Gal(b1-4)GlcNAc(b1-3)GalNAc
# Procedure, shortened: as §1
# [26] = biological target: Neu5Ac(a2-3)Gal(b1-4)GlcNAc(b1-3)Gal(b1-4)GlcNAc(b1-3)[Neu5Ac(a2-3)Gal(b1-4)GlcNAc(b1-3)Gal(b1-4)GlcNAc(b1-6)]GalNAc
# Procedure, shortened: as §1
# [27] = biological target: Neu5Ac(a2-3)Gal(b1-4)GlcNAc(b1-3)Gal(b1-4)GlcNAc(b1-6)[Gal(b1-3)]GalNAc
# Procedure, shortened: as §1
# [28] = biological target: Neu5Ac(a2-3)Gal(b1-4)GlcNAc(b1-3)Gal(b1-4)[Fuc(a1-3)]GlcNAc
# Procedure, shortened: as §1
# [29] = biological target: Neu5Ac(a2-3)Gal(b1-4)GlcNAc(b1-3)GalNAc
# Procedure, shortened: as §1
# [30] = biological target: Neu5Ac(a2-3)Gal(b1-4)GlcNAc(b1-3)[Neu5Ac(a2-3)Gal(b1-4)GlcNAc(b1-6)]GalNAc
# Procedure, shortened: as §1
# [31] = biological target: Neu5Ac(a2-3)Gal(b1-4)GlcNAc(b1-6)GalNAc
# Procedure, shortened: as §1
# [32] = biological target: Neu5Ac(a2-3)Gal(b1-4)GlcNAc(b1-6)[Gal(b1-3)]GalNAc
# Procedure, shortened: as §1
# [33] = biological target: Neu5Ac(a2-3)Gal(b1-4)GlcNAc(b1-6)[Neu5Ac(a2-3)Gal(b1-3)]GalNAc
# Procedure, shortened: as §1
# [34] = biological target: Neu5Ac(a2-3)Gal(b1-4)GlcNAc6S
# Procedure, shortened: as §1
# [35] = biological target: Neu5Ac(a2-3)Gal(b1-4)[Fuc(a1-3)]GlcNAc
# Procedure, shortened: as §1
# [36] = biological target: Neu5Ac(a2-3)Gal(b1-4)[Fuc(a1-3)]GlcNAc(b1-2)Man
# Procedure, shortened: as §1
# [37] = biological target: Neu5Ac(a2-3)Gal(b1-4)[Fuc(a1-3)]GlcNAc(b1-3)Gal
# Procedure, shortened: as §1
# [38] = biological target: Neu5Ac(a2-3)Gal(b1-4)[Fuc(a1-3)]GlcNAc(b1-3)Gal(b1-4)GlcNAc
# Procedure, shortened: as §1
# [39] = biological target: Neu5Ac(a2-3)Gal(b1-4)[Fuc(a1-3)]GlcNAc(b1-3)Gal(b1-4)[Fuc(a1-3)]GlcNAc(b1-3)Gal(b1-4)[Fuc(a1-3)]GlcNAc
# Procedure, shortened: as §1
# [40] = biological target: Neu5Ac(a2-3)Gal(b1-4)[Fuc(a1-3)]GlcNAc(b1-3)GalNAc
# Procedure, shortened: as §1
# [41] = biological target: Neu5Ac(a2-3)Gal(b1-4)[Fuc(a1-3)]GlcNAc(b1-6)[Gal(b1-3)]GalNAc
# Procedure, shortened: as §1
# [42] = biological target: Neu5Ac(a2-3)Gal(b1-4)[Fuc(a1-3)]GlcNAc(b1-6)[Neu5Ac(a2-3)Gal(b1-3)]GalNAc
# Procedure, shortened: as §1
# [43] = biological target: Neu5Ac(a2-3)Gal(b1-4)[Fuc(a1-3)]GlcNAc6S
# Procedure, shortened: as §1
# [44] = biological target: Neu5Ac(a2-3)Gal6S(b1-4)GlcNAc
# Procedure, shortened: as §1
# [45] = biological target: Neu5Ac(a2-3)Gal6S(b1-4)[Fuc(a1-3)]GlcNAc
# Procedure, shortened: as §1
binder,measurement,setting,value
B1,glycan array binding signal (z-score),[1],-0.427
same,glycan array binding signal (z-score),[2],0.055
same,glycan array binding signal (z-score),[3],-0.183
same,glycan array binding signal (z-score),[4],-0.417
same,glycan array binding signal (z-score),[5],0.501
same,glycan array binding signal (z-score),[6],-0.432
same,glycan array binding signal (z-score),[7],-0.382
same,glycan array binding signal (z-score),[8],-0.41
same,glycan array binding signal (z-score),[9],-0.418
same,glycan array binding signal (z-score),[10],0.066
same,glycan array binding signal (z-score),[11],-0.424
same,glycan array binding signal (z-score),[12],-0.433
same,glycan array binding signal (z-score),[13],-0.411
same,glycan array binding signal (z-score),[14],-0.423
same,glycan array binding signal (z-score),[15],-0.407
same,glycan array binding signal (z-score),[16],-0.403
same,glycan array binding signal (z-score),[17],-0.215
same,glycan array binding signal (z-score),[18],-0.432
same,glycan array binding signal (z-score),[19],-0.413
same,glycan array binding signal (z-score),[20],-0.419
same,glycan array binding signal (z-score),[21],-0.422
same,glycan array binding signal (z-score),[22],-0.366
same,glycan array binding signal (z-score),[23],-0.424
same,glycan array binding signal (z-score),[24],-0.248
same,glycan array binding signal (z-score),[25],-0.413
same,glycan array binding signal (z-score),[26],-0.371
same,glycan array binding signal (z-score),[27],-0.399
same,glycan array binding signal (z-score),[28],-0.43
same,glycan array binding signal (z-score),[29],-0.418
same,glycan array binding signal (z-score),[30],-0.419
same,glycan array binding signal (z-score),[31],3.67
same,glycan array binding signal (z-score),[32],-0.395
same,glycan array binding signal (z-score),[33],-0.412
same,glycan array binding signal (z-score),[34],-0.429
same,glycan array binding signal (z-score),[35],-0.414
same,glycan array binding signal (z-score),[36],-0.315
same,glycan array binding signal (z-score),[37],-0.431
same,glycan array binding signal (z-score),[38],-0.373
same,glycan array binding signal (z-score),[39],-0.266
same,glycan array binding signal (z-score),[40],-0.085
same,glycan array binding signal (z-score),[41],-0.423
same,glycan array binding signal (z-score),[42],-0.287
same,glycan array binding signal (z-score),[43],-0.425
same,glycan array binding signal (z-score),[44],-0.408
same,glycan array binding signal (z-score),[45],-0.396
